The whole screen tested about 270,000 compounds, of which about 5,800 (2.1%) were called active. Inconclusive results, whose numbers are uncertain, are shown with a selection of clear calls. Calls follow the shape of the dose curve; as a rule, active = well fitted inhibition curve with a large enough effect; inconclusive = small, poorly fitted or top-dose-only effect; inactive = flat fitted curve, though single readings scatter. Potencies beside an inconclusive call are fits to weak or partial responses and may not hold up.
Target: Microtubule-associated protein tau (Homo sapiens) (UniProt P10636)
Assay: qHTS for Inhibitors of Tau Fibril Formation, Thioflavin T Binding; also: nearly all actives have a fitted effect of over 55% in size
Settings: recombinant tau K18 P301L (four-repeat tau fragment), heparin-induced fibrillization, ThT fluorescence; series mostly up to 57.4 µM; activity, negative = inhibition: at the top concentration
Outline: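 In this qHTS, human K18 P301L tau is incubated with compound and heparin for 6 hr at 37 C, and Thioflavin T fluorescence then reports fibril load.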
% is scaled to controls: 0 for no effect and ±100 for the full control effect; potency is read from the fitted curve at half-maximal effect; tags tell the direction and shape of the fitted curve.

UniProt P10636, sequence (P10636 whole entry, looked up): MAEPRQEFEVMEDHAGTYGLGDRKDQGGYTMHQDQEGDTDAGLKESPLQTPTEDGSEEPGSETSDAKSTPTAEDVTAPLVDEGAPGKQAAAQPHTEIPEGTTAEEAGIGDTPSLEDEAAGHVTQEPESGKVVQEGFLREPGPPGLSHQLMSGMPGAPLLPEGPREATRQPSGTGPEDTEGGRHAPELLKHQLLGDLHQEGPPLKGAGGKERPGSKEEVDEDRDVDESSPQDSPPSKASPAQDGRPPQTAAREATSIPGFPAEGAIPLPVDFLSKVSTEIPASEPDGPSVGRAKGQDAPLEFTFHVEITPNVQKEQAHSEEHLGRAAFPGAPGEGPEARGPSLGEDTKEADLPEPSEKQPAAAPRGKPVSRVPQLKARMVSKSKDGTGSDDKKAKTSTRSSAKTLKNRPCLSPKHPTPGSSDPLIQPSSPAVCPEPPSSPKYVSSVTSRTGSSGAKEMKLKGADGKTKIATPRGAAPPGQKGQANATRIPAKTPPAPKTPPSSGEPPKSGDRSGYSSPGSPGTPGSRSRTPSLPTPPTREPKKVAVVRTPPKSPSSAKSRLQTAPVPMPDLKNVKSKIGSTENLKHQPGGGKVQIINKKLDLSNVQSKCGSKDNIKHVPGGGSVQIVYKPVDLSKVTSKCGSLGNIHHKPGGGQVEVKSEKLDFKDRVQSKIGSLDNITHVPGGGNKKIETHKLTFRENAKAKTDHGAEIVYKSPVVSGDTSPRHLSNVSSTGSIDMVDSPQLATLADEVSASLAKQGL

SMILES	activity, negative = inhibition	Potency
CC(C)(C)c1ccc(C(=O)O)c(C(=O)c2ccccc2)c1	inactive: -7.95%	–
CN(C)c1ccc(NC(=O)c2ccc(Cn3cc([N+](=O)[O-])cn3)cc2)cc1	–	active: 12.6 µM
CCC(=O)Oc1ccc(-c2nc(-c3cccnc3)no2)cc1	–	inconclusive: 20 µM [inhibitor, partial curve]
COc1cc(Cl)c(C)cc1NC(=O)c1cn(CC(C)C)c(=O)c2cc(OC)c(OC)cc12	–	inconclusive: 39.8 µM [inhibitor, single point]
CCOc1ccccc1NC(=O)Cn1c(=O)n(Cc2ccccc2)c(=O)c2c(C)c(C(=O)N(C)C)sc21	inactive: -3.85%	–
CN1CCN(/N=C/c2nc(-c3ccccc3)n3ccccc23)CC1	–	inconclusive: 35.5 µM [inhibitor, single point]
Cc1nn(-c2ccccc2)c(Cl)c1C(=O)N1CCN(c2ncnc3c2cnn3-c2ccccc2)CC1	–	inconclusive: 17.8 µM [inhibitor, partial curve]
CCCCN(CC)CCCNC(=S)Nc1ccc2nc(N3CCN(CC)CC3)cc(C)c2c1	inactive: -8.49%	–
CSc1nsc(SCC(=O)Nc2ccc(Br)cn2)n1	–	inconclusive: 10 µM [inhibitor, partial curve]
CC(C)Cn1c(=O)c2ccccc2n2c(-c3cccc(Cl)c3)nnc12	inactive: -17.1%	–
O=C(NNc1ncnc2c1cnn2-c1ccccc1)c1cccc(Cl)c1	–	inconclusive: 0.501 µM [inhibitor, full curve, poor fit]
Cc1ccc(-c2cc(C(=O)N/N=C/c3c[nH]c4ccccc34)n[nH]2)o1	–	inconclusive: 1.78 µM [inhibitor, full curve]
Cc1ccc(S(=O)(=O)N/N=c2\sc3ccccc3n2C)cc1	inactive: 3.68%	–
Cc1ccc(S(=O)(=O)N2CCN(S(=O)(=O)N3CCOCC3)CC2)cc1C	inactive: 1.03%	–
CN1CCN(S(=O)(=O)c2ccc(Br)s2)CC1	–	inconclusive: 28.2 µM [inhibitor, partial curve]
CCOc1ccc(NC(=O)CN2C(=O)COc3ccc(S(=O)(=O)Nc4ccccc4)cc32)cc1	inactive: -5.08%	–
Cc1ccc(OCCSc2nc3ccccc3n2CC(=O)N2CCOCC2)c(C)c1	–	inconclusive: 17.8 µM [inhibitor, partial curve]
Cc1ccc(Cl)cc1NC(=O)Cn1nc2c(cc1=O)CC(C)CC2 (stereo not drawn)	inactive: 4.64%	–
COc1ccc(CCNC(=O)CN2CCC(C)CC2)cc1OC	inactive: 10.4%	–
Cc1cc(C(=O)CSc2nncs2)c(C)n1-c1ccc2c(c1)OCO2	–	inconclusive: 31.6 µM [inhibitor, partial curve]
Cc1n[nH]c(C)c1CCc1nc2c3ccccc3nc(SCC(=O)Nc3ccccc3F)n2n1	–	inconclusive: 8.91 µM [inhibitor, full curve]
Cc1ccc(SCC(=O)O/N=C(\N)c2ccc([N+](=O)[O-])cc2)cc1	–	inconclusive: 14.1 µM [inhibitor, partial curve]
Cc1ccc(N2CCn3c2nc2c3c(=O)n(CCc3ccccc3)c(=O)n2C)cc1C	–	inconclusive: 12.6 µM [inhibitor, single point]
CCOC(=O)c1ccc(NC(=O)CN2C(=O)c3cccnc3Oc3ccc(Cl)cc32)cc1	–	inconclusive: 39.8 µM [inhibitor, single point]
COc1ccc(C(C[N+](=O)[O-])n2nc(C)cc2C)cc1 (stereo not drawn)	–	inconclusive: 14.1 µM [inhibitor, partial curve]

SMILES	activity, negative = inhibition	Potency
CCCCc1nn2c(=O)cc(COC(=O)c3ccccc3NC(=O)C(C)(C)C)nc2s1	–	inconclusive: 6.31 µM [inhibitor, single point]
COc1cccc(=O)c2c(C)n(-c3cc(C)cc(C)c3)c(C)c12	–	active: 28.2 µM
CCOC(=O)Cc1csc(NC(=O)c2ccc(NC(C)=O)cc2)n1	–	inconclusive: 11.2 µM [inhibitor, partial curve]
NC(=S)n1[nH]c(-c2ccc([N+](=O)[O-])cc2)c(N=Nc2cccc(Cl)c2)c1=O	–	active: 12.6 µM
Cc1ccnc(NC(c2ccccc2F)c2ccc3cccnc3c2O)c1 (stereo not drawn)	–	inconclusive: 20 µM [inhibitor, partial curve, poor fit]
CC1(C)CC(Cc2nc(=S)[nH][nH]2)C(=O)O1 (stereo not drawn)	inactive: -0.927%	–
CCOC(=O)N1CCc2c(sc(NC(=O)c3ccc(S(=O)(=O)N4CCCC4)cc3)c2C#N)C1	–	inconclusive: 14.1 µM [inhibitor, partial curve]
O=C(O)CN(c1ccccc1)C1SC(=O)NC1=O (stereo not drawn)	inactive: -4.21%	–
Nc1ccc2nn(-c3ccccc3)nc2c1	–	inconclusive: 12.6 µM [inhibitor, partial curve]
Cc1cc(Nc2cccc([N+](=O)[O-])c2)n2c(nc3ccccc32)c1C#N	–	inconclusive: 20 µM [inhibitor, partial curve]
CCC1=NNc2cccc3c(OC)ccc1c23	–	active: 12.6 µM
S=c1nc[nH]c2c1sc1nc(-c3ccccc3)c3c(c12)CCCC3	–	inconclusive: 11.2 µM [inhibitor, partial curve]
Cn1c(NC(=O)Cc2cccc3ccccc23)cc(=O)n(C)c1=O	inactive: -4.48%	–
COCCn1c(C)cc(C(=O)CSc2cc(C)c3ccccc3n2)c1C	–	inconclusive: 39.8 µM [inhibitor, single point]
COCCCNC(=S)NNC(=S)NCCCOC	inactive: -0.0892%	–
COc1c(C)cc(S(=O)(=O)NCCc2c(C)[nH]c3ccccc23)c(C)c1C	–	inconclusive: 39.8 µM [inhibitor, single point]
Cc1cc(N2CCN(S(=O)(=O)Cc3ccccc3)CC2)n2ncnc2n1	inactive: -8.68%	–
Cc1cc(C)cc(C(=O)Nc2ccc(-c3nc4ncccc4o3)cc2)c1	–	inconclusive: 0.199 µM [inhibitor, full curve, poor fit]
CN(C)Cc1cc(C(C)(C)c2cc(CN(C)C)c(O)c(CN(C)C)c2)cc(CN(C)C)c1O	inactive: -8.39%	–
CCOc1ccc2nc(NC(=O)c3cc(=O)c4ccc(C)cc4o3)sc2c1	–	inconclusive: 4.47 µM [inhibitor, partial curve]
Cc1ccc(-c2noc(CCCC(=O)N3CCOCC3)n2)cc1	–	inconclusive: 39.8 µM [inhibitor, single point]
O=C(Nc1c(F)cccc1F)c1cnc(N2CCN(c3ccccn3)CC2)c2ccccc12	–	inconclusive: 11.2 µM [inhibitor, partial curve, poor fit]
Cc1ccc(N/C(N)=N/c2nc3c(c(=O)[nH]2)CCCC3)c(C)c1	–	inconclusive: 3.55 µM [inhibitor, full curve]
Cc1[nH]c2ccc(Br)cc2c(=S)c1C/C=C/Cl	–	inconclusive: 22.4 µM [inhibitor, partial curve]
O=c1[nH]nc(SCc2ccccc2Cl)n1-c1ccc2c(c1)OCCO2	inactive: 16.3%	–

SMILES	activity, negative = inhibition	Potency
CCOCCCNC(=O)/C(C#N)=C/c1cc(OC)c(O)c([N+](=O)[O-])c1	–	active: 14.1 µM
Cc1ccc(CNC(=O)Cn2nc(C)n3cccc3c2=O)cc1	inactive: 9.31%	–
CCn1c2ccccc2c2cc(CN3CCN(C(=O)c4ccco4)CC3)ccc21	–	inconclusive: 25.1 µM [inhibitor, single point]
CC(=O)Oc1ccc2c(=O)c(N3C(=O)c4ccccc4C3=O)c(C)oc2c1C	–	inconclusive: 17.8 µM [inhibitor, single point]
COc1ccccc1C(=O)N/C(=C\c1ccc(Br)cc1)C(=O)NCC(=O)O	inactive: -2.47%	–
Cn1cc([N+](=O)[O-])c(C(=O)Nc2ccc3nc(-c4ccccc4)[nH]c3c2)n1	–	active: 15.8 µM
Oc1ccc(NCc2cccc(OCc3ccccc3)c2)cc1	–	active: 28.2 µM
Cc1nc(-c2ccccc2)sc1C(=O)CSc1ccc(Cl)cc1	–	inconclusive: 3.16 µM [inhibitor, partial curve]
CCN(CC)S(=O)(=O)c1ccc(N2CCCCC2)c(NC(=O)/C=C/c2ccc(OC)c(OC)c2)c1	inactive: -7%	–
CCN(CC)C(=O)CSc1nc(N)c2c3c(sc2n1)CC(C)CC3 (stereo not drawn)	–	inconclusive: 25.1 µM [inhibitor, partial curve]
CCCCOc1[nH]c2nc(-c3ccco3)n(Cc3ccco3)c(=N)c2c1C#N	–	active: 22.4 µM
CCc1ccc(CNC(=O)Cc2ccc(NC(=O)N3CCSc4ncccc43)cc2)cc1	inactive: -2.19%	–
N#Cc1cc2ccc(N3CCOCC3)cc2cc1C#N	–	inconclusive: 17.8 µM [inhibitor, partial curve]
COc1ccc(N2CCN(C(=O)CCc3c(C)nn(-c4ccc(N5CCCC5)nn4)c3C)CC2)cc1	–	inconclusive: 44.7 µM [inhibitor, single point]
COc1ccc(/C=C/c2cc(OC)cc(=O)o2)cc1	–	inconclusive: 11.2 µM [inhibitor, partial curve]
C=CCNc1scc(-c2ccccc2)[n+]1CC=C	inactive: -6.04%	–
COc1ccc(C2=CC(=O)N(Nc3ccccc3)C2=O)cc1	–	inconclusive: 39.8 µM [inhibitor, single point]
CCOC(=O)c1ccc(NC(=O)CCCc2nc(-c3ccccc3Cl)no2)cc1	–	inconclusive: 4.47 µM [inhibitor, partial curve]
CON(c1nc(N(C)C)nc(N(C)C)n1)S(=O)(=O)c1ccccc1Cl	inactive: -1.38%	–
CC1CN(C(=O)COC(=O)c2ccc(N)c([N+](=O)[O-])c2)CC(C)O1 (stereo not drawn)	inactive: 1.12%	–
Cc1cc(C=O)c(C)n1-c1sc2c(c1C(=O)O)CCCC2	inactive: 0.124%	–
COc1ccc(S(=O)(=O)N2CCN(c3ccccc3F)CC2)cc1-c1noc(C)n1	–	inconclusive: 12.6 µM [inhibitor, partial curve]
CCC(C)n1c(C)nc2c(c1=O)c1nc3ccccc3nc1n2CCC1=CCCCC1 (stereo not drawn)	–	inconclusive: 31.6 µM [inhibitor, single point]
